Among the data in the supplement of paper PMC11880418 are ALDHbr values, retold here.

Molecules are shown by their SMILES. Counter-ions that a name gives are not always drawn. Some of the results follow. The data scatter; read single values as rough.

Among the test systems are MKN45; PANC1; SUM159; T84.
Assay in all cases: ALDHbr (CSC) cell proportion score relative to DMSO vehicle (ratio to DMSO); breast (SUM159) / gastric (MKN45) / pancreatic (PANC1) / colon cancer lines; ALDHbr cells have high ALDH activity and are rich in cancer stem cells (CSC); higher = more CSC (ALDHbr) cells remaining
What all share (conditions): 10 µM; 72 h
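Note: High-content imaging of ALDEFLUOR-stained cells with Hoechst-labelled nuclei in 384-well plates, triplicate wells, scored as Z-score against 0.1% DMSO vehicle, negative meaning fewer ALDHbr cells.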

As to `CCCN(CCC)S(=O)(=O)c1ccc(C(=O)O)cc1` [Probenecid], the ALDHbr was determined as 1.1 in the assay with MKN45, 0.908 in the assay on PANC1, 0.855 in the assay on SUM159 and 0.998 in the assay with T84.
On the same counts, the results for `C[C@H](CCC(=O)O)[C@H]1CC[C@H]2[C@@H]3C(=O)C[C@@H]4CC(=O)CC[C@]4(C)[C@H]3CC(=O)[C@]12C` [Dehydrocholic acid] are 0.999, 0.978, 1.05 and 1.03.
Regarding `CN(C)CCC(c1ccccc1)c1ccccn1` (configuration not stated) [Pheniramine maleate], the ALDHbr is 1.02 in the assay on MKN45, 0.954 in the assay on PANC1, 1.05 in the assay on SUM159 and 0.817 with T84.
On the same counts, the results for `Nc1nc(Cl)nc2c1ncn2[C@H]1C[C@H](O)[C@@H](CO)O1` [Cladribine] are 0.243, 0.953, 0.598 and 0.13.
For `CN(C)CCC[C@@]1(c2ccc(F)cc2)OCc2cc(C#N)ccc21` [Escitalopram oxalate], in that order: 0.956, 0.86, 1.35 and 1.12.
On the same counts, the results for `Nc1ccc(S(=O)(=O)Nc2ccccn2)cc1` [Sulfapyridine] are 0.957, 1.05, 1.07 and 1.03.
For `CS(=O)(=O)Nc1ccc([N+](=O)[O-])cc1Oc1ccccc1` [Nimesulide], the ALDHbr was 0.846 with MKN45, 0.759 with PANC1, 0.924 in the assay on SUM159 and 0.894 in the assay with T84.
As for `Nc1ccc(S(=O)(=O)Nc2ccc(Cl)nn2)cc1` [Sulfachloropyridazine], the ALDHbr with MKN45 is 1.15; with PANC1 it was 0.966; in the assay on SUM159, 1.43; in the assay on T84, 0.923.
With `CN(C)CCCC1(c2ccc(F)cc2)OCc2cc(C#N)ccc21` (configuration not stated) [Citalopram Hydrobromide], the ALDHbr with MKN45 is 1.04; with PANC1, 0.884; in the assay with SUM159, 0.896; in the assay on T84 it was 0.937.
As to `C[N+]1(C)CCC(=C(c2ccccc2)c2ccccc2)CC1` [Diphemanil methylsulfate], the ALDHbr turned out to be 1.12 with MKN45, 0.923 in the assay with PANC1, 0.835 in the assay with SUM159 and 0.866 in the assay with T84.
For the molecule `CCOC(=O)[C@@](C)(N)Cc1ccc(O)c(O)c1` [Methyldopate hydrochloride], the ALDHbr with MKN45 was determined as 0.923; in the assay with PANC1 it was 0.955; with SUM159, 1.09; in the assay with T84, 0.795.
In the case of `C#CCN[C@@H]1CCc2ccccc21` [Rasagiline], the ALDHbr with MKN45 came to 0.849; in the assay on PANC1 it was 0.928; with SUM159, 0.779; in the assay with T84, 0.846.
Turning to `CN[C@@H]1[C@H](O[C@H]2[C@H](O[C@H]3[C@H](O)[C@@H](O)[C@H](NC(=N)N)[C@@H](O)[C@@H]3NC(=N)N)O[C@@H](C)[C@]2(O)CO)O[C@@H](CO)[C@H](O)[C@H]1O` [Dihydrostreptomycin sulfate], the ALDHbr was 1.22 in the assay with MKN45, 0.894 in the assay with PANC1, 1.06 in the assay with SUM159 and 1.06 in the assay with T84.
Consider `CN(C)/N=N/c1[nH]cnc1C(N)=O` [Dacarbazine], for which the ALDHbr was determined as 1.15 in the assay with MKN45, 0.873 with PANC1, 0.514 with SUM159 and 1.08 in the assay on T84.
For `CN1CCN(c2c(F)cc3c(=O)c(C(=O)O)cn4c3c2SCC4)CC1` [Rufloxacin], in that order: 1.21, 0.912, 1.22 and 1.09.
For `CC[N+](C)(C)Cc1ccccc1Br` [Bretylium tosylate], in that order: 1.12, 1.05, 0.982 and 0.864.
For `C=C1/C(=C\C=C2/CCC[C@]3(C)[C@@H]([C@H](C)/C=C/[C@@H](O)C4CC4)CC[C@@H]23)C[C@@H](O)C[C@@H]1O` [Calcipotriene], in that order: 0.836, 1.03, 0.792 and 0.66.
For `O=C(O)c1ccccc1C(=O)Nc1ccc(S(=O)(=O)Nc2nccs2)cc1` [Phthalylsulfathiazole], the ALDHbr is 0.988 with MKN45, 0.878 in the assay with PANC1, 0.972 in the assay on SUM159 and 1.02 with T84.
For `CCn1cc(C(=O)O)c(=O)c2ccc(C)nc21` [Nalidixic acid sodium salt], in that order: 1.01, 0.854, 1.06 and 1.
For `CN(C)CCOC(=O)C(c1ccccc1)C1(O)CCCC1` (configuration not stated) [Cyclopentolate hydrochloride], in that order: 0.922, 0.96, 0.995 and 0.997.
On the same counts, the results for `COc1ccc(-c2ccc3cc(C(=O)O)ccc3c2)cc1C12CC3CC(CC(C3)C1)C2` [Adapalene] are 0.123, 1.69, 0.426 and 0.2.
On to `O=C1CN(/N=C/c2ccc(-c3ccc([N+](=O)[O-])cc3)o2)C(=O)N1` [Dantrolene sodium salt], for which the ALDHbr in the assay with MKN45 is 0.783; with PANC1, 0.743; in the assay on SUM159, 0.935; with T84 it was 0.824.
As to `Nc1ccc(S(=O)(=O)Nc2cnc3ccccc3n2)cc1` [Sulfaquinoxaline sodium salt], the ALDHbr in the assay with MKN45 was determined as 1.02; in the assay with PANC1, 0.877; in the assay with SUM159 it was 0.812; with T84, 0.978.
In the case of `CC(C)c1c(C(=O)Nc2ccccc2)c(-c2ccccc2)c(-c2ccc(F)cc2)n1CC[C@@H](O)C[C@@H](O)CC(=O)O` [Atorvastatin], the ALDHbr in the assay on MKN45 is 0.713; in the assay with PANC1, 1.04; in the assay on SUM159, 0.476; with T84, 0.884.
In the case of `Oc1c(I)cc(Cl)c2cccnc12` [Clioquinol], the ALDHbr with MKN45 amounted to 0.159; in the assay on PANC1, 1.81; with SUM159 it was 1.02; with T84, 1.01.
On the same counts, the results for `Cc1cccc(N(C)C(=S)Oc2ccc3ccccc3c2)c1` [Tolnaftate] are 0.302, 0.777, 0.889 and 0.837.
Take `CN(C)c1cc(NC(=O)CNC(C)(C)C)c(O)c2c1C[C@H]1C[C@H]3[C@H](N(C)C)C(=O)C(C(N)=O)=C(O)[C@@]3(O)C(=O)C1=C2O` [Tigecycline]: the ALDHbr was 0.793 with MKN45, 0.619 in the assay on PANC1, 0.943 in the assay with SUM159 and 0.961 in the assay on T84.
In the case of `CC[N+](C)(CC)CCC[n+]1c(-c2ccccc2)c2cc(N)ccc2c2ccc(N)cc21` [Propidium iodide], the ALDHbr in the assay on MKN45 was 1.06; with PANC1, 0.935; with SUM159 it was 1.34; with T84, 1.07.
